# Test results published in publication PMC4336329 (PLoS ONE, 2015).
# Hit rate of the full screen: of about 310,000 compounds, about 14,000 (4.5%) showed an effect of 50% or more. Effects have a minus sign here. Some of the results follow.
# Biological target: human ether-à-go-go-related gene (hERG) potassium channel (human, UniProt Q12809)
# Assay: primary screen, population patch clamp on CHO cells stably expressing hERG
# 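Further: peak tail current of the secondary pulse compared with the same well before compound.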
# human ether-à-go-go-related gene (hERG) potassium channel, sequence (Q12809 whole entry, looked up): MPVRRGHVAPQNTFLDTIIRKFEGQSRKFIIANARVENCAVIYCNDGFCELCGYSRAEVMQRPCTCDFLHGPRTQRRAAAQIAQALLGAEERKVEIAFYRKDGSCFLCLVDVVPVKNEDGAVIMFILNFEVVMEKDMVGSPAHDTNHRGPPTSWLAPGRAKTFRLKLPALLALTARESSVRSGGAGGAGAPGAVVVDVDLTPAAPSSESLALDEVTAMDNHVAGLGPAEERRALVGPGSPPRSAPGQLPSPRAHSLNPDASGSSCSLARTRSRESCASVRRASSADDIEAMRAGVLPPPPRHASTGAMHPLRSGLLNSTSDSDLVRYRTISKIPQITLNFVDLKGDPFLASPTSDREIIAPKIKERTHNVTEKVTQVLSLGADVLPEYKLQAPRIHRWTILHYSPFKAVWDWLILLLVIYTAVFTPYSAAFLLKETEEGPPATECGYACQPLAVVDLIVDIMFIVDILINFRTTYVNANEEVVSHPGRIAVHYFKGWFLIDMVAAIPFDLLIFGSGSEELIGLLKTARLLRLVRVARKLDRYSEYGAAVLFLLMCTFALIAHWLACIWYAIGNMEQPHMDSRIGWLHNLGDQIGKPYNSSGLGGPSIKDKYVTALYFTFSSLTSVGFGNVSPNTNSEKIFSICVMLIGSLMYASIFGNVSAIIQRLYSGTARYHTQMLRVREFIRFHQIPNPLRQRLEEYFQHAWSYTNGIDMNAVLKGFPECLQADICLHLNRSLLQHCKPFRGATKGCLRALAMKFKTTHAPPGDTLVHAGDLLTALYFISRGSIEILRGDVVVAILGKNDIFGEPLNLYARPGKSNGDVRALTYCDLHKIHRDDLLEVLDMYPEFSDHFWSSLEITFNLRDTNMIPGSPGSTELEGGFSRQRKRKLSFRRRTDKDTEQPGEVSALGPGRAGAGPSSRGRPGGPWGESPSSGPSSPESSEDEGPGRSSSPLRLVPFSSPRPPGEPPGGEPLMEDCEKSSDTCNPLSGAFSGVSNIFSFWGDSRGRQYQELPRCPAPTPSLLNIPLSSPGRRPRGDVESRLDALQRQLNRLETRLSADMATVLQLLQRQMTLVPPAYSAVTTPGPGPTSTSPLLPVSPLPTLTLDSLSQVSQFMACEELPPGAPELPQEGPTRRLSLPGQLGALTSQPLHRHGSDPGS
row,SMILES,"hERG current change (%, negative = inhibition) at 10uM [%]"
1,O=C(c1ccc(NS(=O)(=O)c2ccccc2)cc1)N1CCN(Cc2ccc3c(c2)OCO3)CC1,-63.8
2,CC1(C2CC2)NC(=O)N(CC(=O)Nc2ccc(C(F)(F)F)cc2)C1=O (stereo not drawn),-17.5
3,CN(C)S(=O)(=O)c1ccc(NC(=O)c2cc(F)c(F)cc2Cl)cc1,-17.2
4,COCc1ccc(C(=O)N2CCCC(Nc3ccc(C(C)C)cc3)C2)o1 (stereo not drawn),-0.274
5,Cc1nc2ccccc2n1C(=O)c1ccccc1[N+](=O)[O-],-8.22
6,COc1ccc(C(=O)NNS(=O)(=O)c2ccccc2)cc1OC,13.3
7,Cc1cc(C)cc(OCc2nnc(SCC(=O)OC3CCCCC3)o2)c1,1.89
8,O=C(CCNS(=O)(=O)c1ccc(Br)cc1)NCc1ccc(F)cc1,-4.89
9,COCCCNC(=O)CSC1=Nc2ccccc2C2=NC(Cc3c[nH]c4ccccc34)C(=O)N12 (stereo not drawn),9.79
10,COc1cccc(C(C(=O)NC2CCCC2)N(Cc2cccnc2)C(=O)Cc2cccs2)c1 (stereo not drawn),-5.67
11,O=C(Nc1nncs1)c1cccc(S(=O)(=O)N2CCCC2)c1,1.94
12,C=CCn1c(SC(C)C(=O)NC2(C#N)CCCCC2)nnc1-c1ccc(OC)cc1 (stereo not drawn),-22
13,CCOC(=O)c1c(NC(=O)COC(=O)c2cnc(C)cn2)sc(C(=O)N(C)C)c1C,6.63
14,Cc1nnc(NC(=O)c2nn(CC(C)C)c(=O)c3ccccc23)s1,26.6
15,CC(=O)Nc1ccc(NC(=O)CSc2ncnn2-c2ccccc2)cc1,-2.05
16,Brc1ccc(Nc2ncnc3[nH]ncc23)cc1,-8.01
17,O=C(C1CCCN(Cc2cccs2)C1)N1CCCCCC1.O=C(O)C(=O)O (stereo not drawn),-5.31
18,CCOC(=O)c1[nH]c2ccc(OC)cc2c1NC(=O)c1ccc2c(c1)OCO2,17.1
19,CC(C)CCOC(=O)C1[C@H]2C(=O)N(Cc3cccs3)C[C@]23C=C[C@H]1O3 (stereo partly drawn),13.8
20,O=C(CN(C(=O)c1csnn1)c1cccc2c1CCCC2)NCc1ccc(F)cc1,-57.7
21,CCC/C=C1/CCCOC(C(=O)NCc2ccccn2)(C(F)(F)F)C1 (stereo not drawn),-7.21
22,O=C(O)/C=C\C(=O)Nc1ccccc1C(=O)NCc1ccccc1,19.3

row,SMILES,"hERG current change (%, negative = inhibition) at 10uM [%]"
1,Cc1nc(-c2ccccc2)c(-c2ccccc2)[nH]1,-45.2
2,COc1ccc2oc(=O)c(C(=O)N3CCN(c4ccccc4F)CC3)cc2c1,-9.25
3,O=C(c1ccccc1)N(C(=O)c1ccccc1)c1ncnc2c1C(c1ccccc1)c1c(ccc3ccccc13)O2 (stereo not drawn),0.221
4,O=C(N/N=C/c1cccs1)[C@H]1C[C@@H]1c1ccccc1,-7.99
5,CCOC(=O)c1cnc2ccc(F)cc2c1Nc1ccc2c(c1)OCCO2,-2.79
6,C/C(CC(=O)Nc1cc(C)cc(C)c1)=N\NC(=O)c1ccccn1,-2.5
7,Cc1csc(C(C)N(C)C(=O)c2ccc(OC3CCN(Cc4ccccn4)CC3)cc2)n1 (stereo not drawn),-12
8,Cc1cccc(C(=O)N/C(=C\c2ccco2)C(=O)N2CCCC2)c1,-18.6
9,COc1ccc(NS(=O)(=O)c2cc3c(cc2C)N(C(C)=O)CCO3)c(OC)c1,0.0351
10,Cc1ccc(C(=O)OCC(=O)N(C)c2c(N)n(Cc3ccccc3)c(=O)[nH]c2=O)s1,-1.22
11,CC1(C)CC(=O)C2=C(C1)Oc1ncn(CCCn3ccnc3)c(=N)c1C2c1ccccc1 (stereo not drawn),-53.3
12,Cc1ccc(S(=O)(=O)N2CCN(C(=O)c3ccco3)CC2)cc1C,-4.01
13,CCOC(=O)c1ccc2nc(NC(=O)C(C)C)sc2c1,-9.04
14,O=C(CSCSCC(=O)NCC1CCCO1)NCC1CCCO1 (stereo not drawn),9.83
15,COc1cc(NC(=O)c2[nH]c(C)c(C(C)=O)c2C)cc(OC)c1OC,4.94
16,CC1(c2nnc(Cc3ccccc3)o2)CC(c2ccccc2)=NO1 (stereo not drawn),-18
17,COc1ccccc1CC(NC(C)=O)C(=O)NC1CCN(C(=O)c2ccc(C)cc2)CC1 (stereo not drawn),3.31
18,CCN(c1cccc(C)c1)S(=O)(=O)c1ccc2c(c1)CCCN2C(C)=O,-19.3
19,CCOC(=O)N1CCN(C(c2cccc(OC)c2)c2sc3nc(C)nn3c2O)CC1 (stereo not drawn),3.01
20,O=C(c1nc2ccccn2c1CN1CCC(Cc2ccccc2)CC1)N1CCCC1,-70.7
21,COC(=O)c1ccccc1-n1c(CCC(=O)O)ccc1-c1ccccc1,0.715
22,Cc1ccc(CN2CCN(CC(=O)NCCCN3CCN(c4ccc(F)cc4)CC3)C2=O)cc1,-66

row,SMILES,"hERG current change (%, negative = inhibition) at 10uM [%]"
1,CCOC(=O)c1nnn(-c2nonc2N)c1CS(=O)(=O)c1ccccc1,-4.97
2,Oc1ccccc1CNc1cccc2cccnc12,8.2
3,C#CCNC(=O)c1cc2sccc2n1C,-4.02
4,O=C(CN(Cc1ccc(Br)cc1)S(=O)(=O)c1ccccc1)NCc1cccnc1,-17.2
5,Cc1cccc(N(Cc2cc3ccccc3[nH]c2=O)C(=O)c2ccco2)c1C,4.51
6,Cc1ccc2[nH]c(=O)c(CN(CCCN3CCOCC3)Cc3nnnn3C3CCCC3)cc2c1,-54.5
7,CC(=O)NC1=NN(C(C)=O)C(C)(CS(=O)(=O)c2ccc(Cl)cc2)S1 (stereo not drawn),5.79
8,Cc1ccc(N(CC(=O)N/N=C/c2cccnc2)S(=O)(=O)c2ccccc2)cc1,-52
9,Cc1ccc2c(c1)NC(=O)C(CC(=O)NCCCN1CCCC1)O2 (stereo not drawn),12.6
10,CS(=O)(=O)Nc1ccc(OCc2ccccc2)cc1,2.82
11,O=C(c1cc2ccccc2oc1=O)N1CCOCC1,6.33
12,O=C(COc1ccccc1)Nc1nc2c(s1)CCCC2,-20.3
13,Cl.O=C(NCCCNCc1ccccc1)c1ccncc1,-5.26
14,Cc1cc(/C=N/NC(=O)c2cccc([N+](=O)[O-])c2)c(C)n1-c1ccccc1,8.99
15,CCOC(=O)c1noc(C)c1C(=O)Nc1cccc(F)c1,-8.49
16,O=C(NCc1cccnc1)C1CC(=O)N(CCc2ccccc2)C1 (stereo not drawn),-11.9
17,CCOC(=O)c1c(C(F)(F)C(F)(F)C(F)(F)C(F)(F)F)n[nH]c1C,-1.89
18,Fc1cccc(Nc2nc3ccccc3n3cnnc23)c1,4.55
19,COc1ccc(Cl)cc1NC(=O)CN(C)C(=O)COc1ccccc1F,-21.6
20,O=C(CN1C(=O)NC2(CCCCCC2)C1=O)NC1CC1,12.5
21,CCOC(=O)c1c(NC(=O)COC(=O)c2ccccn2)sc(C(=O)N(C)C)c1C,4.44
22,CC(=O)N1c2ccc(S(=O)(=O)N3CCCC(C(=O)Nc4cc(C)cc(C)c4)C3)cc2CC1C (stereo not drawn),6.85

row,SMILES,"hERG current change (%, negative = inhibition) at 10uM [%]"
1,CCOc1ccc(CN2CCN(Cc3[nH]c4ccc(OC)cc4c3C)CC2CCO)cc1 (stereo not drawn),-77.9
2,O=C(CNC(=O)c1ccccc1Br)N/N=C/c1ccco1,16.3
3,CCOC(=O)Cn1nc(C)n(-c2ccc(Cl)cc2)c1=O,10.4
4,COc1ccc(OC)c(NC(=O)CN(Cc2ccc(Cl)cc2)S(C)(=O)=O)c1,-28.3
5,CC(=O)NC(CCS(C)(=O)=O)C(=O)Nc1ccc(C)c(F)c1 (stereo not drawn),-12.7
6,CCCCOc1ccc(CSc2n[nH]c(C)n2)cc1,-1.41
7,COc1ccc(Br)cc1C(=O)Nc1cccc(C)c1C,-7.74
8,COc1cc(OC)cc(C(=O)NCC(=O)OCC(=O)c2ccc3c(c2)-c2ccccc2C3)c1,3.82
9,Cc1cc(C(=O)CN2C(=O)NC3(CCCCC3)C2=O)c(C)n1Cc1ccco1,-6.05
10,C#CCOC(=O)C[N+](C)(C)CC=C.[Cl-],15.5
11,N#CC1=C(N)Oc2c(c(=O)oc3ccccc23)C1c1ccncc1 (stereo not drawn),-13.5
12,CC(C)(C)c1ccc(C(=O)NCCC(=O)N2CCCC2)cc1,16.4
13,Cc1c(C(=O)Nc2ccc(N3CCOCC3)cc2)cccc1[N+](=O)[O-],8.67
14,CC(CNC(=O)CCn1ccc2cc(S(=O)(=O)N3CCCC3)ccc21)c1ccccc1 (stereo not drawn),-27.3
15,Cc1ccccc1NC1=C(Cl)C(=O)OC1OC(=O)c1ccccc1C (stereo not drawn),-6.95
16,O=C(c1ccc2[nH]c(=O)c(=O)[nH]c2c1)N1CCN(Cc2ccccc2)CC1,17.1
17,CC(C)(C)C(=O)COC(=O)c1ccc(N)c([N+](=O)[O-])c1,3.04
18,CC(=O)c1c(C)[nH]c(-c2ccccc2)nc1=S,10.5
19,COC(=O)c1sc(N)c(C(=O)OC)c1CSc1nc2sc3c(c2c(=O)n1C)CCC3,-3.07
20,CCOc1ccc(S(=O)(=O)Nc2ccc3c(c2)n(C)c(=O)n3C)cc1,11.5
21,CNC(=S)Nn1cnc2ccccc21,-4
